The values that follow come from PubChem BioAssay AID360 (National Center for Advancing Translational Sciences (NCATS), 2006).

The campaign covered roughly 48,000 compounds. About 550 (1.1%) were called active. Inconclusive results (about 4%) are left out. No stated cut-off is given here; in the data, active means potency below about 15 µM; inconclusive means mostly about 16 µM to 33 µM; inactive means weaker than that. The list shows a part of the results.
Potency means the concentration at half of the fitted maximal effect.

In this experiment the target is Lysosomal acid glucosylceramidase (Homo sapiens) (UniProt P04062). The experiment in a line: Glucocerebrosidase.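 Further: the screen sought inhibitors.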 Conditions: purified enzyme, resorufin glucoside fluorescence (screen aimed at inhibitors), 20 min. The gist of the method: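 Compounds titrated against 0.2 nM normal enzyme, 30 uM resorufin beta-D-glucopyranoside substrate, citrate/phosphate buffer with taurocholate and tween-20, pH 5.9. Reaction ran 20 min at room temperature; fluorescence (Ex 548/Em 600) gave AC50.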
Chain of UniProt P04062 (P04062 whole entry, looked up): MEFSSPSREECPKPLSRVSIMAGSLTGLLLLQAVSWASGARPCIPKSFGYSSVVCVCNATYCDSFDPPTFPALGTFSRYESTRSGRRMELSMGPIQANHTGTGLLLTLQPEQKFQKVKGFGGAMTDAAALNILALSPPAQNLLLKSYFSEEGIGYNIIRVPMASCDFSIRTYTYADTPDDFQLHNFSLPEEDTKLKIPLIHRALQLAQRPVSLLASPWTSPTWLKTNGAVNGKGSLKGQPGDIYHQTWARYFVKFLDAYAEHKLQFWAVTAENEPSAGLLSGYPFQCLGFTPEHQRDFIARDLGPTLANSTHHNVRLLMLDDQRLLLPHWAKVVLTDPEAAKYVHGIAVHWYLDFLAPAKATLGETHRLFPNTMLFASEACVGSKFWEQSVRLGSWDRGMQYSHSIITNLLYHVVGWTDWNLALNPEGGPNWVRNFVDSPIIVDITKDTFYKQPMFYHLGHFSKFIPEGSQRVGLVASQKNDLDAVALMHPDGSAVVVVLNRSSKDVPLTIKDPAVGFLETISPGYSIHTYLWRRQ
Consider `CN1CCN(C(=O)c2cccc(S(=O)(=O)N3CCCCC3)c2)CC1`, for which the Potency is inactive: > 76.9 µM.
With `CCC(C)n1c(C)nc2c(c1=O)c1nc3ccccc3nc1n2-c1ccc2c(c1)OCCO2` (centres undefined), the Potency was inactive: > 76.9 µM.
The value for `CCOC(=O)N1CCC(NS(=O)(=O)c2ccc3c(c2)CCN3C(C)=O)CC1` was inactive: > 76.9 µM.
The value for `c1ccc(-c2n[nH]nc2-c2ccccc2)cc1` was inactive: > 76.9 µM; that for `CC(=O)C1=C(O)C(=O)N(CCc2c[nH]c3ccccc23)C1c1ccco1` (centres undefined) was inactive: > 76.9 µM.
The value for `OCCNc1ncnc2ccc(Br)cc12` was “inactive”; that for `CCOc1ccccc1C(=O)N(CN1CCCC1=O)c1cccc(Cl)c1` was inactive: > 76.9 µM.
As to `COC(=O)CCC(=O)Nc1ccc(NC(C)=O)cc1`, the Potency was inactive: > 76.9 µM.
Next, `Cc1cc(C)n2cc(CSc3nnc(-c4ccccc4)o3)nc2n1`: inactive: > 76.9 µM; `Cc1sc2nc(CN3CCOCC3)nc(N3CCC(C(N)=O)CC3)c2c1C`: inactive: > 76.9 µM; `Cn1c(=O)oc2cc(S(=O)(=O)Nc3cccc(C(=O)O)c3)ccc21`: inactive: > 76.9 µM.
Consider `CCn1c(COc2ccc3c(c2)OCO3)nnc1SCC(=O)c1ccccc1`, for which the Potency is inactive: > 76.9 µM.
Turning to `CCOC(=O)c1c(-c2cccs2)csc1NC(=O)CN1CC(C)OC(C)C1` (centres undefined), the Potency was inactive: > 76.9 µM.
Next, `COc1ccccc1-c1cc(C(=O)N2CCN(c3ccccc3OC)CC2)no1`: inactive: > 76.9 µM; `CCOC(=O)N1CCN(Cc2ccccn2)CC1`: inactive: > 76.9 µM.
As to `O=C(NCN1C(=O)C2C3C=CC(C3)C2C1=O)Nc1nccs1` (centres undefined), the Potency is inactive: > 76.9 µM.
On to `CCOC(=O)c1cc(CC)sc1NC(=O)CCC(=O)O`, for which the Potency is inactive: > 76.9 µM.
Take `Cn1c(Nn2cnnc2)nc2ccccc21`: the Potency was inactive: > 76.9 µM.
Next, `COc1ccc2cc(C(c3nnnn3C(C)(C)C)N3CCc4ccccc4C3)c(=O)[nH]c2c1` (centres undefined): inactive: > 76.9 µM; `N#Cc1ccc(COC(=O)CSc2nnc(C3CCCCC3)n2N)cc1`: inactive: > 76.9 µM.
Consider `O=C(CCN1C(=O)COc2ccccc21)NCc1cccnc1`, for which the Potency was inactive: > 76.9 µM.
In the case of `O=C(NC1CCCCCC1)C1c2ccccc2C(=O)N1Cc1ccco1` (centres undefined), the Potency was inactive: > 76.9 µM.
For the compound `Cc1cc(C(F)F)n2nc(C(=O)Nc3cc(C)on3)nc2n1`, the Potency is inactive: > 76.9 µM.
For `COc1cc(NC(=O)CCn2c(=O)[nH]c3ccsc3c2=O)cc(OC)c1`, the Potency was inactive: > 76.9 µM.
The value for `CN(CC(=O)N1CC(=O)N(CCc2ccccc2)C(=O)C1)S(=O)(=O)c1cccc2nsnc12` was inactive: > 76.9 µM; that for `CCOc1ccccc1OCCCC(=O)NC1=NCCS1` was inactive: > 76.9 µM; that for `CC(=O)N1CCN(c2ccc(NCc3ccc(C(C)C)cc3)cc2)CC1` was active: 7.71 µM.
Consider `COc1ccc(CCNC(=O)CCS(=O)(=O)c2ccc3c(c2)CCN3C(C)=O)cc1OC`, for which the Potency was inactive: > 76.9 µM.
As to `Cc1cc(=O)oc2cc(OC(C)C(=O)O)c(Cl)cc12` (centres undefined), the Potency was inactive: > 76.9 µM.
As for `Cc1ccc2cc(C#N)c(N3CCCN(S(=O)(=O)c4ccccc4)CC3)nc2c1`, the Potency is inactive: > 76.9 µM.
For `COc1ccc(C2(C(=O)N3CCOCC3)CCOCC2)cc1OC`, the Potency is inactive: > 76.9 µM.
The value for `Cc1ccc(NC(=O)CSCC(N)=O)cc1C` was inactive: > 76.9 µM.
As to `Cc1nnc2sc(-c3cc4ccccc4o3)nn12`, the Potency is inactive: > 76.9 µM.
Next, `OC(CN1C2=NCCCN2c2ccccc21)c1ccc2c(c1)OCO2` (centres undefined): inactive: > 76.9 µM; `N#Cc1cccc(NC(=O)c2ccccc2C(=O)O)c1`: inactive: > 76.9 µM; `COc1ccc(Cl)cc1NC(=O)N(C)Cc1c(C)nn(C)c1C`: inactive: > 76.9 µM.
Regarding `COc1ccccc1-n1c(SCC(=O)Nc2ccccc2F)nc2[nH]ncc2c1=O`, the Potency was inactive: > 76.9 µM.
As to `CCC(=O)N1CCc2cc(S(=O)(=O)CCC(=O)O)ccc21`, the Potency was inactive: > 76.9 µM.
`CC(C)(C)c1ccc(-c2nnc3sc(-c4ccncc4)nn23)cc1`: the Potency is inactive: > 76.9 µM.
The value for `O=S(=O)(c1ccc(-c2csc(-c3cccnc3)n2)cc1)N1CCCCC1` was inactive: > 76.9 µM; that for `Nn1c(SCC(=O)NC2CCCc3ccccc32)nnc1-c1cccs1` (centres undefined) was inactive: > 76.9 µM.
Regarding `COC(=O)c1onc(C(=O)c2ccccc2)c1C(=O)OC`, the Potency is inactive: > 76.9 µM.
Next, `CCn1c(SCC(=O)c2ccc3c(c2)OCCO3)nnc1C(C)C`: inactive: > 76.9 µM.
The value for `Cc1cc(C)c(C)c(OCC(=O)NCC2CCCO2)c1` (centres undefined) was inactive: > 76.9 µM.
Next, `Cn1c(=O)[nH]c(=O)c2c1nc(Br)n2Cc1ccccc1F`: inactive: > 76.9 µM; `CN(C)C(=O)c1ccc(COc2ccccc2Br)o1`: inactive: > 76.9 µM; `CCN=c1scc(C)n1/N=C/c1ccsc1`: inactive: > 76.9 µM.
As for `COCc1cc(C)nc(SCC(=O)Nc2ccc3c(c2)OCO3)c1C#N`, the Potency result was “inactive”.
The value for `CCOC(=O)N1CCC(NC(=O)C2CCN(c3nc(-c4ccc(OC)cc4)no3)CC2)CC1` was inactive: > 76.9 µM.
Next, `Cc1ccc2nc(SCC(=O)O)nc(C)c2c1`: inactive: > 76.9 µM.
Next, `CCN1C(=O)C(O)(CC(=O)c2ccc(-n3cccc3)cc2)c2ccccc21` (centres undefined): inactive: > 76.9 µM; `COc1ccc(Br)cc1CNC(=O)C1CCCN(S(C)(=O)=O)C1` (centres undefined): inactive: > 76.9 µM.
For `CCOc1ccc(OCC)c(NC(=O)C2COc3ccccc3O2)c1` (centres undefined), the Potency is inactive: > 76.9 µM.
On to `CCOC(=O)c1ccc(NC(=O)CC2Sc3ncnn3C2=O)cc1` (centres undefined), for which the Potency was inactive: > 76.9 µM.
As to `CCC(C)NC(=O)Cn1cnc2sc(C)cc2c1=O` (centres undefined), the Potency is inactive: > 76.9 µM.
For `COCCNC(=O)CCc1nc(-c2ccccc2)no1`, the Potency is inactive: > 76.9 µM.
Consider `COc1ccc(-c2c(C#N)c(N)nc3c2CCCC3)cc1OC`, for which the Potency was inactive: > 76.9 µM.
Next, `COc1cc2c(cc1OC)C1(NCC2)C(=O)Nc2ccccc21` (centres undefined): inactive: > 76.9 µM.
The value for `CCN(CC)CCNS(=O)(=O)c1ccc(Cl)cc1` was inactive: > 76.9 µM.
Next, `Cc1cc(C)nc(N2CCCC(C(=O)NCc3cccs3)C2)n1` (centres undefined): inactive: > 76.9 µM.
As to `O=C1CSC(c2cccnc2)N1C1CCCCC1` (centres undefined), the Potency is inactive: > 76.9 µM.
Next, `CN(C(=O)c1ccc(Cl)cc1)C1=CCCCC1CCC#N` (centres undefined): inactive: > 76.9 µM; `CC(C)(C)NC(=O)COC(=O)c1ccc(O)cc1`: inactive: > 76.9 µM.
The value for `O=C(CSc1nnc(-c2ccccc2Br)o1)N1CCc2ccccc2C1` was inactive: > 76.9 µM; that for `CN(C)/C=C1\C=C(c2ccccc2)OC1=O` was inactive: > 76.9 µM.
Next, `CCC(NC(=O)c1ccccc1O)c1ccccc1` (centres undefined): inactive: > 76.9 µM; `COc1ccc(CCNC(=O)CSc2nnc(-c3cccc(F)c3)o2)cc1OC`: inactive: > 76.9 µM; `CCn1c(CN2CCN(C(=O)c3ccco3)CC2)nc2c1c(=O)n(C)c(=O)n2C`: inactive: > 76.9 µM.
As to `CCCn1nnnc1SCC(=O)NCc1cccs1`, the Potency is inactive: > 76.9 µM.
Next, `Cc1cc(C)c(S(=O)(=O)N(C)CC(=O)N2CCCCC2)c(C)c1`: inactive: > 76.9 µM; `Cn1c(=O)n(C)c2cc(C(=O)Nc3ccc4c(c3)OCO4)ccc21`: inactive: > 76.9 µM; `CCS(=O)(=O)NC(C)C(c1cccs1)N1CCN(C)CC1` (centres undefined): inactive: > 76.9 µM.
`C=CCn1c(=O)c2ccccc2n2c(SCc3nnc(-c4ccccc4Br)o3)nnc12`: the Potency is inactive: > 76.9 µM.
In the case of `Cc1ccc(Nc2nc(=O)c3cccnc3s2)cc1`, the Potency was inactive: > 76.9 µM.
Consider `CCOc1ccc(S(=O)(=O)N(C)c2ccc(OCC(=O)OCc3c(C)noc3C)cc2)cc1`, for which the Potency was inactive: > 76.9 µM.
Next, `CCCS(=O)(=O)N1CCC(C(=O)NCCN(CC)c2ccccc2)CC1`: inactive: > 76.9 µM.
The value for `Cc1c(C(=O)Nc2ccc(C(=O)O)cc2)cnn1C` was inactive: > 76.9 µM; that for `CC(=O)N1CCc2cc(S(=O)(=O)NCCC(=O)NC3CCCc4ccccc43)ccc21` (centres undefined) was inactive: > 76.9 µM.
For `COc1cc(NS(=O)(=O)c2ccc(NC(C)=O)cc2)cc(OC)c1`, the Potency is inactive: > 76.9 µM.
The value for `O=c1nc(-c2ccccc2)c2ccccc2[nH]1` was inactive: > 76.9 µM; that for `c1coc(CNc2nc3sc4c(c3c3ncnn23)CCCC4)c1` was inactive: > 76.9 µM; that for `CCN(CCNC(=O)C1CCCN(S(=O)(=O)CC)C1)c1ccccc1` (centres undefined) was inactive: > 76.9 µM.
Next, `Cc1ccc(-c2csc3ncn(-n4c(C)ccc4C)c(=O)c23)o1`: inactive: > 76.9 µM; `Cc1ccc(C2(C)NC(=O)N(CC(=O)Nc3ccc4c(c3)OCO4)C2=O)cc1` (centres undefined): inactive: > 76.9 µM; `Cc1nc(SCC(C)C)[nH]c(=O)c1Cc1ccccc1`: inactive: > 76.9 µM.
The value for `CC(c1ccco1)N(C(=O)c1cccs1)c1ccccn1` (centres undefined) was inactive: > 76.9 µM; that for `O=C(NC1CCCCC1)NC1CCN(CC(=O)N2CCOCC2)CC1` was inactive: > 76.9 µM; that for `CC(C)Oc1ccc(C2NC(=O)NC2=O)cc1` (centres undefined) was inactive: > 76.9 µM.
On to `COc1cccc(NC(=O)COC(=O)c2cccnc2)c1`, for which the Potency was inactive: > 76.9 µM.
Next, `Cc1ccc2nsnc2c1N(S(C)(=O)=O)S(C)(=O)=O`: inactive: > 76.9 µM; `Cc1ccc(S(=O)(=O)Cc2cn3cccnc3n2)cc1`: inactive: > 76.9 µM; `CCOC(=O)c1c(C)oc(/N=C/c2ccccc2O)c1C#N`: inactive: > 76.9 µM.
For `Cc1ccccc1Cn1c(=N)n(CC(O)c2ccco2)c2ccccc21` (centres undefined), the Potency is inactive: > 76.9 µM.
Next, `O=C(CC1NCCNC1=O)Nc1ccc(Oc2ccccc2)cc1` (centres undefined): “inactive”.
